# The whole screen tested about 270,000 compounds, of which about 620 (0.23%) were called active. Inconclusive results, whose numbers are uncertain, are shown with a selection of clear calls. Calls follow the shape of the dose curve; as a rule, active = well fitted inhibition curve with a large enough effect in the polarisation, with a control signal flat (not every such curve was filed as active); inconclusive = small, poorly fitted or top-dose-only effect, or effect the other way, or a change in a side signal; inactive = no such curve, though single readings can be large or run the other way; the % refers to the polarisation. Where the call is inconclusive, the potency comes from a doubtful curve fit. A note “side channel” means that the fit belongs to a control or component signal, not to the main read-out.
# Target: Menin (Homo sapiens) (UniProt O00255)
# Test: qHTS Assay for Inhibitors Targeting the Menin-MLL Interaction in MLL Related Leukemias: Competition With Texas Red Labeled MLL-derived Mutant Peptide; as to FP activity change, negative = inhibition: % of control where 0% means no effect
# Settings: fluorescence polarization; FP activity change, negative = inhibition: at 61.6 µM (top of the series)
# Potency is read from the fitted curve at half-maximal effect; tags tell the direction and shape of the fitted curve or compound fluorescence and quenching.
# Chain of UniProt O00255 (O00255 whole entry, looked up): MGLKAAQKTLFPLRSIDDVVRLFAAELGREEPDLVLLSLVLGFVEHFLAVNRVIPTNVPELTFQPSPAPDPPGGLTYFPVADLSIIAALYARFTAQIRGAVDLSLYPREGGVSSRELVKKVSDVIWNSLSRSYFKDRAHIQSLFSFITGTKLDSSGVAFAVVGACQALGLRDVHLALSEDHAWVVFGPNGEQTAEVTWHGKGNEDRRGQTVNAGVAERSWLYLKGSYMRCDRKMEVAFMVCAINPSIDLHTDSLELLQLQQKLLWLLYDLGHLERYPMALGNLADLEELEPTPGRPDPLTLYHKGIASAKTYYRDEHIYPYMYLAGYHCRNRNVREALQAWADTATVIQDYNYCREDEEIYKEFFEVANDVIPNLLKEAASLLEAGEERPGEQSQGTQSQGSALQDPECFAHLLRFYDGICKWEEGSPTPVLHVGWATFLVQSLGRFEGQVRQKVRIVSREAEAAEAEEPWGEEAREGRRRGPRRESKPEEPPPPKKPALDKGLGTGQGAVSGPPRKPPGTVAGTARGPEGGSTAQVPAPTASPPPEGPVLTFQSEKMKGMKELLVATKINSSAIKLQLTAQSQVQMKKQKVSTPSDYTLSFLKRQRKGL
Structure (SMILES),Potency,"FP activity change, negative = inhibition"
COc1ccc(C2SCC(=O)N2Cc2ccccc2)cc1 (configuration not stated),"inconclusive: 11.2 µM [fluorescent, side channel, partial curve]",–
CCOC(=O)c1c(C)n(S(=O)(=O)c2ccc(C)cc2)c2ccc(O)c(C(=O)O)c12,"inconclusive: 11.2 µM [quencher, side channel, partial curve]",–
FC(F)(F)c1cccc(CNC2c3ccccc3-c3ccccc32)c1,"inconclusive: 39.8 µM [inhibitor, single point]",–
Cc1ccc(N(C(=O)CCC(=O)Nc2cc(C)on2)C(C(=O)NC2CCCC2)c2ccccc2)cc1 (configuration not stated),"inconclusive: 17.8 µM [fluorescent, side channel, partial curve]",–
CC(=O)C1=C(O)C(=O)N(c2ccc(Br)cc2)C1c1ccc(Cl)cc1 (configuration not stated),"inconclusive: 20 µM [quencher, side channel, partial curve]",–
Nc1ccc(-c2nc3c(ccc4ccccc43)[nH]2)cc1,"inconclusive: 14.1 µM [quencher, side channel, partial curve]",–
COc1cc(NS(=O)(=O)c2ccc(NC(=O)/C=C/c3cccc([N+](=O)[O-])c3)cc2)ncn1,"inconclusive: 14.1 µM [quencher, side channel, partial curve]",–
O=C1/C(=C\c2ccc(Br)o2)SC(=Nc2ccccc2)N1c1ccccc1,"inconclusive: 20 µM [quencher, partial curve]",–
CCOc1ccc(-c2cc(C(=O)N3CCN(C)CC3)c3ccccc3n2)cc1,–,inactive: 3.95%
Cc1noc(C)c1C(=O)Nc1ccccc1-c1ccccc1,"inconclusive: 3.16 µM [inhibitor, single point]",–
O=C(NCc1ccccn1)c1cc2ccccn2n1,–,inactive: -0.681% [at 11.7 µM]
CN(C(=O)COc1ccccc1)c1nc(-c2ccc(F)cc2)cs1,"inconclusive: 39.8 µM [inhibitor, single point]",–
CCc1nn(C(C)C(=O)N2CCN(Cc3ccccc3)CC2)c(=O)c2cc3occc3n12 (configuration not stated),"inconclusive: 20 µM [fluorescent, side channel, single point]",–
C=CCC(C)(Nc1ccccc1)C(=O)OCC (configuration not stated),–,inactive: 5.39%
O=C(Nc1ccc2ccccc2c1)c1ccc(NS(=O)(=O)c2ccc(Br)s2)cc1,"inconclusive: 7.94 µM [quencher, side channel, partial curve]",–
c1ccc(Cc2noc(CN3CCC(CN4CCOCC4)CC3)n2)cc1,"inconclusive: 17.8 µM [inhibitor, partial curve]",–
CC(/C=N/NC(=O)c1cc(-c2ccc3ccccc3c2)n[nH]1)=C\c1ccco1,"inconclusive: 17.8 µM [inhibitor, partial curve]",–
COc1ccc2c(c1OC)C(=O)N(c1ccc(C)c(C)c1)C2=O,"inconclusive: 35.5 µM [inhibitor, single point]",–
CC(C)N(C(=O)CSc1n[nH]c(=O)n1CCc1ccccc1)C(C)C,"inconclusive: 39.8 µM [inhibitor, partial curve, poor fit]",–

Structure (SMILES),Potency,"FP activity change, negative = inhibition"
CC(=O)Nc1ccc(NC(=O)C2CCCN(S(=O)(=O)c3ccc(Cl)cc3)C2)cc1 (configuration not stated),"inconclusive: 39.8 µM [fluorescent, side channel, single point]",–
O=c1c2ccccc2nc(/C=C/c2ccc(Cl)cc2)n1CCO,–,inactive: -4.34%
Cc1c(Cl)sn(-c2ccc(Cl)cc2)c1=O,–,inactive: 38.3%
CS(=O)(=O)c1ccccc1-c1nc(-c2ccc([N+](=O)[O-])cc2)no1,"inconclusive: 25.1 µM [quencher, side channel, single point]",–
CCC(=O)Nc1ccc(C(=O)CSc2nc3ccc(C)cc3[nH]2)cc1,"inconclusive: 11.2 µM [quencher, side channel, partial curve]",–
COc1ccc(CCN(Cc2cccs2)S(=O)(=O)c2ccc(C(=O)O)cc2)cc1OC,"inconclusive: 22.4 µM [quencher, side channel, single point]",–
CC1Cc2ccccc2N1Cc1cc(=O)n2ccsc2n1 (configuration not stated),"inconclusive: 39.8 µM [quencher, side channel, single point]",–
COc1ccc(C2C=C(C34CC5CC(CC(C5)C3)C4)NC(=S)N2)cc1 (configuration not stated),"inconclusive: 7.94 µM [fluorescent, side channel, partial curve]",–
CC(C)(C)NC(=S)NC(C)(C)C,"inconclusive: 31.6 µM [fluorescent, side channel, partial curve]",–
CN(C)CCNS(=O)(=O)c1ccc(N2CCc3ccccc32)c([N+](=O)[O-])c1,"inconclusive: 15.8 µM [inhibitor, partial curve]",–
O=C1CCC([N+](=O)[O-])C(c2ccc(F)c(Br)c2)N1 (configuration not stated),"inconclusive: 0.631 µM [inhibitor, full curve, poor fit]",–
C=CCc1ccc(OC(=O)c2ccccc2)c(OC)c1,"inconclusive: 35.5 µM [fluorescent, side channel, single point]",–
O=C(c1ccc(F)cc1)N1CCN(C2CCC(c3ccccc3)CC2)CC1 (configuration not stated),"inconclusive: 12.6 µM [inhibitor, partial curve]",–
CCO[C@@H]1OC(C(=O)N2CCN(Cc3ccc4c(c3)OCO4)CC2)=C[C@H](c2coc3ccccc3c2=O)[C@H]1CCCO,"inconclusive: 3.98 µM [fluorescent, side channel, full curve]",–
CC1CCN(S(=O)(=O)c2cccc(C(=O)Nc3nccs3)c2)CC1,"inconclusive: 17.8 µM [quencher, side channel, single point]",–
CC(C)(C)c1ccc(Oc2ccc(NC(=O)C3CC=CCC3C(=O)O)cc2)cc1 (configuration not stated),"inconclusive: 22.4 µM [quencher, side channel, partial curve]",–
CCOC(=O)c1[nH]c(CN2CCN(c3ccc(OC)cc3)CC2)c(C(=O)OCC)c1C,"inconclusive: 7.94 µM [inhibitor, partial curve]",–
CCN(CC(=O)N1CCOCC1)S(=O)(=O)c1ccccc1,"inconclusive: 28.2 µM [inhibitor, single point]",–
CCc1nc(N)c(C#N)c(-c2ccccc2OC)c1C,–,inactive: -17.3%

Structure (SMILES),Potency,"FP activity change, negative = inhibition"
CCc1nc2ccccc2c(C(=O)Nc2cc(C)ccc2C)c1C,"inconclusive: 7.08 µM [inhibitor, single point]",–
CC(=O)N(c1ccccc1)C1CC(C)N(C(=O)c2ccccc2)c2ccccc21 (configuration not stated),"inconclusive: 5.01 µM [inhibitor, single point]",–
Cc1ccc(SCC(=O)Nc2ccc(C(=O)Nc3ccc(O)cc3)cc2)cc1,"inconclusive: 3.55 µM [inhibitor, single point]",–
COc1ccc(CN2CCN(c3cccc(C)c3C)CC2)cc1OC,–,inactive: -10.8%
Cc1cc(NC(=O)CCN2CCN(Cc3ccccc3)CC2)ccc1Br,"inconclusive: 15.8 µM [fluorescent, side channel, partial curve]",–
CN1CCN(/N=C/c2ccc(N(c3ccccc3)c3ccccc3)cc2)CC1,"inconclusive: 3.98 µM [inhibitor, partial curve]",–
Cn1nc([N+](=O)[O-])c2c(-c3nc4ccccc4s3)c(N)n(C3CCCCC3)c2c1=O,"inconclusive: 8.91 µM [quencher, side channel, partial curve]",–
Cc1ccc(/C=C2\SC(=S)N(C3CCS(=O)(=O)C3)C2=O)o1 (configuration not stated),"inconclusive: 12.6 µM [fluorescent, side channel, partial curve]",–
COC(=O)C(Cc1ccc(OC(=O)c2ccc(C)cc2)cc1)N1Cc2ccccc2C1=O (configuration not stated),"inconclusive: 12.6 µM [inhibitor, partial curve]",–
Cc1ccc(-c2nc(C#N)c(N3CCC(C)CC3)o2)cc1,"inconclusive: 17.8 µM [fluorescent, side channel, partial curve]",–
O=S(=O)(Nc1nnc(-c2ccccc2)s1)c1ccc(Cl)cc1,"inconclusive: 25.1 µM [quencher, side channel, single point]",–
Cc1oc(-c2ccc(Cl)cc2)nc1CN1CCC(C(=O)N2CCc3ccccc3C2)CC1,"inconclusive: 5.01 µM [fluorescent, side channel, full curve, poor fit]",–
CCOc1ccc(NC(=O)c2c(NC(=O)CNCCN3CCOCC3)sc3c2CCC3)cc1,"inconclusive: 0.794 µM [inhibitor, full curve, poor fit]",–
O=C(Nc1ccc(Nc2ccccc2)cc1)C1CC1,"inconclusive: 31.6 µM [quencher, side channel, single point]",–
O=C(Nc1nc(-c2ccncc2)cs1)C1c2ccccc2Oc2ccccc21,"inconclusive: 10 µM [quencher, side channel, partial curve]",–
CCN(CC)P(=O)(Nc1ccc(C)cc1Br)c1ccc(N(C)C)cc1NC(=O)c1ccco1 (configuration not stated),"inconclusive: 6.31 µM [fluorescent, side channel, full curve, poor fit]",–
O=[N+]([O-])c1ccc2nc(NS(=O)(=O)c3ccccc3[N+](=O)[O-])sc2c1,"inconclusive: 25.1 µM [quencher, partial curve]",–
CC1=CC(C)(C)Nc2ccc(Cc3ccc4c(c3)C(C)=CC(C)(C)N4)cc21,"inconclusive: 11.2 µM [quencher, side channel, partial curve]",–
O=C(Nc1ccccc1F)Nc1ccc([N+](=O)[O-])cc1Cl,"inconclusive: 14.1 µM [quencher, side channel, partial curve]",–

# — PubChem BioAssay AID1768 (National Center for Advancing Translational Sciences (NCATS), 2009)
